# In the supplement of paper PMC12645437, “Orthogonal IMiD-Degron Pairs Induce Selective Protein Degradation in Cells” (ACS Chemical Biology, 2025):
# The list shows a part of the results.
# Biological target: no compound (DMSO)
# Assay: log2 fold change of degron read counts, EGFP-low vs EGFP+ sorted cells; higher = lower degron-EGFP level without compound (poor expression or instability)
# Conditions: compound: DMSO control; 18 h
# 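Also: jurkat cells carrying a lentiviral library of mutant zinc finger degrons fused to EGFP plus mCherry, mCherry+ cells FACS sorted, degron abundance counted by next-generation sequencing.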
row,Sequence,log2 fold change of degron read counts
1,FNCPICGRSFTQKGNLLRHIKL,-0.571
2,FNCPQCGALFTQKGNLLRHIKL,-0.505
3,FHCPICGHFFTQKGNLLRHIKL,0.0812
4,FLCNQCGANFTQKGNLLRHIKL,-0.595
5,FFCDICGAWFTQKGNLLRHIKL,0.672
6,FFCPICGHDFTQKGNLLRHIKL,-0.45
7,FVCPVCGAGFTQKGNLLRHIKL,-0.85
8,FWCNQCGAMFTQKGNLLRHIKL,0.391
9,FDCSVCGHRFTQKGNLLRHIKL,-0.617
10,FQCEVCGAQFTQKGNLLRHIKL,-1.37
11,FKCPICGHPFTQKGNLLRHIKL,-0.241
12,FSCSVCGHKFTQKGNLLRHIKL,-1.33
13,FCCEICGATFTQKGNLLRHIKL,-1.42
14,FVCPICGHRFTQKGNLLRHIKL,-0.912
15,FVCEICGRHFTQKGNLLRHIKL,-1.28
16,FKCEQCGAQFTQKGNLLRHIKL,-2.33
17,LCCPICGFSCTQKGNLLRHIKL,0.443
18,FSCDICGANFTQKGNLLRHIKL,-1.93
19,FQCNVCGARFTQKGNLLRHIKL,-0.445
20,FMCDQCGADFTQKGNLLRHIKL,-1.57
21,FECDICGASFTQKGNLLRHIKL,-2.36
22,FECEICGAKFTQKGNLLRHIKL,-1.35
23,FRCEQCGAKFTQKGNLLRHIKL,-1.43
24,FKCPQCGAVFTQKGNLLRHIKL,-1.14
25,FFCNQCGRKFTQKGNLLRHIKL,-0.481

row,Sequence,log2 fold change of degron read counts
1,FECEVCGANFTQKGNLLRHIKL,-1.9
2,FMCNVCGAAFTQKGNLLRHIKL,-1.21
3,FYCDVCGAVFTQKGNLLRHIKL,-0.413
4,FKCDQCGAHFTQKGNLLRHIKL,-1.33
5,FGCDVCGANFTQKGNLLRHIKL,-2.17
6,LFCNQCGFPCTQKGNLLRHIKL,1
7,FFCEICGHAFTQKGNLLRHIKL,-1.09
8,FVCPVCGACFTQKGNLLRHIKL,-0.469
9,FYCNVCGAKFTQKGNLLRHIKL,-1.09
10,FLCNICGAGFTQKGNLLRHIKL,-0.567
11,LNCPICGFNCTQKGNLLRHIKL,0.467
12,FNCEICGRSFTQKGNLLRHIKL,-1.28
13,FWCNQCGRLFTQKGNLLRHIKL,1.5
14,FHCSVCGHPFTQKGNLLRHIKL,0.343
15,FYCEICGALFTQKGNLLRHIKL,-0.418
16,LGCPICGFICTQKGNLLRHIKL,1.64
17,FYCDVCGADFTQKGNLLRHIKL,-2.14
18,FQCEICGHPFTQKGNLLRHIKL,-0.749
19,FKCNICGAYFTQKGNLLRHIKL,-0.617
20,FICNQCGAPFTQKGNLLRHIKL,-0.672
21,FVCPVCGAFFTQKGNLLRHIKL,0.6
22,FVCPICGHYFTQKGNLLRHIKL,0.0571
23,LWCEICGFICTQKGNLLRHIKL,2.83
24,FFCNVCGAMFTQKGNLLRHIKL,0.769
25,FHCPVCGAKFTQKGNLLRHIKL,-0.591
